Reference: the supplement of paper PMC10126150
Sequences with one replicate were seen in a single cluster, so their values are uncertain.

Tested on: ATP
Test: switch fluorescence ratio, 500 uM ATP over buffer (Cy3 cluster intensity, sum of 5 cycles each) (fold (ratio)); higher = stronger signal-on switching upon ATP binding; sequences stand for … in TCGTCGGCAGCGTCAGATGTGTATAAGAGACAGTTTTTTTTTTTTTTTTTTTTTTTTT…TC
Conditions: aptamer strand: ATP DNA aptamer (quencher-CACCTGGGGGAGTATTGCGGAGGAAGG + anchor), 100 nM annealed; ATP concentration: 500 uM; one replicate
In short: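 Cy3-labelled switching-strand clusters on a modified Illumina MiSeq flow-cell were annealed to 100 nM quencher-labelled ATP aptamer, imaged in selection buffer, then imaged after 15 min with 500 uM ATP at 22 °C. Five buffer/ATP cycles ran, with NaOH stripping and re-annealing between them. The fluorescence ratio is summed target-cycle over summed buffer-cycle Cy3 intensity per cluster, averaged per switch-domain sequence. Clusters outside 100-1000 RFU were excluded.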
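Note: ATP exposure 15 min at 22 °C before imaging.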

Row | Sequence | switch fluorescence ratio
1 | CACGAGTTTA | 1.01
2 | CACGATATAA | 1.1
3 | CACGATATAG | 1.11
4 | CACGATATCA | 1.04
5 | CACGATCATG | 1.09
6 | CACGATTTTC | 0.925
7 | CACGCAGTAT | 1.42
8 | CACGCCTTTC | 1.52
9 | CACGCGCCCC | 1.32
10 | CACGCGTCAA | 1.05
11 | CACGGCCGGT | 0.996
12 | CACGGGAAAG | 1.01
13 | CACGGTAGTT | 1.01
14 | CACGGTCGTT | 1.03
15 | CACGTACATC | 1.6
16 | CACGTAGGGA | 1.12
17 | CACGTATCGA | 1.08
18 | CACGTGTTAC | 1.17
19 | CACGTTACGA | 1.56
20 | CACTCAATTT | 1.01
21 | CACTCATGAG | 0.977
22 | CACTCGTAGG | 1.02
23 | CACTCTCACT | 1.1
24 | CACTGATTAC | 1.21
25 | CACTGTACC | 1.63
26 | CACTGTCCGG | 1.03

Row | Sequence | switch fluorescence ratio
27 | CACTGTGGAG | 1.03
28 | CACTGTTAGC | 1.1
29 | CACTTCAGTC | 0.957
30 | CACTTCGAG | 0.994
31 | CACTTCGCCT | 1.22
32 | CACTTCGGGA | 1.03
33 | CACTTGGTTA | 1.05
34 | CACTTGTATT | 1
35 | CACTTTTATT | 0.995
36 | CAGAAAGAT | 0.989
37 | CAGAAATTTG | 1.03
38 | CAGAACGATA | 1.06
39 | CAGAAGCTCG | 1.02
40 | CAGACCCTAC | 1.37
41 | CAGACGATTC | 1.07
42 | CAGAGAATA | 1.02
43 | CAGAGAGCAC | 1.01
44 | CAGAGATCTA | 1.01
45 | CAGATATAAG | 0.943
46 | CAGATATGAG | 1
47 | CAGATCCTGC | 1.02
48 | CAGATCCTTG | 1.01
49 | CAGATCGGAA | 1.08
50 | CAGATGAAAT | 1.04
51 | CAGATGAGA | 0.984
52 | CAGATGCGTG | 1.01

Row | Sequence | switch fluorescence ratio
53 | CAGATTTAAC | 0.99
54 | CAGCAATGAA | 1.24
55 | CAGCAGTTTC | 1.33
56 | CAGCATCGTG | 0.976
57 | CAGCATGAAT | 1.02
58 | CAGCATGCAT | 0.994
59 | CAGCATTAAA | 1.71
60 | CAGCATTTAA | 1.06
61 | CAGCCATAGC | 0.981
62 | CAGCCATGCT | 1.02
63 | CAGCGCTCA | 0.992
64 | CAGCGGAATC | 1.72
65 | CAGCGGCCCG | 1.02
66 | CAGCGGTCGA | 1.01
67 | CAGCGGTCGG | 0.984
68 | CAGCGGTCGT | 1.06
69 | CAGCGTGGGC | 0.996
70 | CAGCGTTCCT | 1.25
71 | CAGCTAAATG | 1.06
72 | CAGCTATAAA | 1.01
73 | CAGCTATCT | 1.08
74 | CAGCTCACGT | 1.05
75 | CAGCTCCTGT | 0.995
76 | CAGCTCGACC | 1.19
77 | CAGCTCGCGC | 1.01
78 | CAGCTTCGGA | 1.31

Row | Sequence | switch fluorescence ratio
79 | CAGGAAAAAT | 1.04
80 | CAGGAAGGCC | 0.965
81 | CAGGAATCGT | 0.996
82 | CAGGACGTGA | 1.05
83 | CAGGACTAGG | 1.01
84 | CAGGAGAGGT | 1.05
85 | CAGGAGCCTG | 0.975
86 | CAGGAGCGGT | 1.52
87 | CAGGAGTG | 0.963
88 | CAGGATAAA | 1.02
89 | CAGGATCGCC | 1
90 | CAGGCGTGGG | 1.04
91 | CAGGGACCCA | 0.988
92 | CAGGGATCGC | 0.97
93 | CAGGGCCAG | 0.973
94 | CAGGGCGTAG | 0.971
95 | CAGGGGACT | 1.02
96 | CAGGGGTCGA | 0.99
97 | CAGGGTAAAA | 0.963
98 | CAGGGTGCTT | 1.1
99 | CAGGGTTTG | 1
100 | CAGGTACCA | 1.06
101 | CAGGTATGCA | 1
